# According to PubChem BioAssay (Tox21):
# “And” between values parts separate entries of the source, which are not always exact repeats. Equal entries are not always repeated. The inconclusive results got no clear call from the source; some entries with a clear call stand among them for comparison. For some of these results: Potencies beside an inconclusive call are fits to weak or partial responses and may not hold up. Some structures have more than one record in an assay (separate samples or runs), and their calls can disagree. The source made the active and inactive calls. Unless noted, calls follow the shape of the dose curve; as a rule, active = well fitted curve in the direction sought with a large enough effect in the repeat runs; inconclusive = weak or mixed curves; inactive = no such curve, though single readings can be large; an effect the other way counts as inactive or inconclusive.
# Legend:
# [1] = qHTS assay to identify small molecule antagonists of the TGF-beta/Smad signaling pathway (AID 1346924; active = well fitted inhibition curve with a large enough effect in the signal ratio in the repeat runs, not every such curve was filed as active; inconclusive = weak or mixed curves; the % refers to the signal ratio; also: potency is read from the fitted curve at half-maximal effect); details: SBE-bla HEK293T, TGF-beta/Smad reporter, beta-lactamase ratio; activity, negative = inhibition: at 76.8 µM (top of the series) unless noted
# Summary of the method: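 SBE-bla HEK 293T cells were plated overnight, then received compound in DMSO plus TGF-beta1 (added as a 0.25 ng/mL solution) and were incubated 5 h at 37 C. Beta-lactamase reporter activity was read after 2 h at room temperature with LiveBLAzer B/G FRET substrate (ex 405, em 460/530 nm).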
# [2] = molecular target: Nuclear receptor subfamily 1 group I member 2 (Rattus norvegicus) (UniProt Q9R1A7); test: Rat pregnane X receptor (rPXR) activation by small molecules, qHTS assay (AID 1346983); details: rPXR luciferase reporter cells, One-Glo luminescence, 24 h; max activation: active compounds read high; also: potency is read from the fitted curve at half-maximal effect; nearly all actives have a fitted effect of over 20% in size
# Sequence of UniProt Q9R1A7 (Q9R1A7 whole entry, looked up): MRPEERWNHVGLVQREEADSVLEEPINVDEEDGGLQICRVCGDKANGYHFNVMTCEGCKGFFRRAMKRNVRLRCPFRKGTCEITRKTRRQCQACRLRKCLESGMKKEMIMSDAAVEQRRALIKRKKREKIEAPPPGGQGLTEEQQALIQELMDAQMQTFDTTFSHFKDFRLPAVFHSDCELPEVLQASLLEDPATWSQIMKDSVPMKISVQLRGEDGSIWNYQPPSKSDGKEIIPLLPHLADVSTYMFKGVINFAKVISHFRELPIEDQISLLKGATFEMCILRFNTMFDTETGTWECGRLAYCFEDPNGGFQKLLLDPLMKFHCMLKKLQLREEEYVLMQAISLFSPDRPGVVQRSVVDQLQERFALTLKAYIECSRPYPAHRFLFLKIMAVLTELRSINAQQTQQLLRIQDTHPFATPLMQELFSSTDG
# Summary of the method: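 Cell-based rPXR luciferase reporter assay, 2,000 cells per well, rested 5hr at 37 C before compound addition in DMSO, then 24 hr at 37 C. One-Glo reagent was added and luminescence read after 30 min at room temperature.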
# [3] = molecular target: Cytochrome P450 2C9 (Homo sapiens) (UniProt P11712); test: Cytochrome P450 Family 2 Subfamily C Member 9 (CYP2C9) small molecule antagonists: luciferase reporter qHTS assay (AID 1671198); also: nearly all actives have a fitted effect of over 50% in size; also: potency is read from the fitted curve at half-maximal effect
# Sequence of UniProt P11712 (P11712 whole entry, looked up): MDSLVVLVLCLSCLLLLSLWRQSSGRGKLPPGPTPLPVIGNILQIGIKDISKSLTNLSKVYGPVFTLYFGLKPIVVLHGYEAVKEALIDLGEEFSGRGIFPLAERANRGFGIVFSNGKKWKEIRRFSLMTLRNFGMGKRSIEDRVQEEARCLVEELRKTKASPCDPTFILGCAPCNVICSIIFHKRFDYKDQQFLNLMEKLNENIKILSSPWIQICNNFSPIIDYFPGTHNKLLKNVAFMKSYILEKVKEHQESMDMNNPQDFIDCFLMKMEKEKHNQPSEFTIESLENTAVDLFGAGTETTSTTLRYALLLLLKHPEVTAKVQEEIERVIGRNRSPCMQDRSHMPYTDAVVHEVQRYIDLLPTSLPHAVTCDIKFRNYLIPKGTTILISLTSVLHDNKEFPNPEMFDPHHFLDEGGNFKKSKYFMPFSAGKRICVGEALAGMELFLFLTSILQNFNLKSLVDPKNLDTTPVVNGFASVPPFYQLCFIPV
# Summary of the method: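 CYP2C9 activity was measured with a P450-Glo proluciferin substrate. Enzyme–substrate mix was held with compound for 10 min at room temperature, then NADPH regeneration solution was added for 1 h at 37C. Luciferin product was read as luminescence.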
# [4] = molecular target: Cytochrome P450 2C19 (Homo sapiens) (UniProt P33261); test: Cytochrome P450 Family 2 Subfamily C Member 19 (CYP2C19) small molecule antagonists: luciferase reporter qHTS assay (AID 1671197); also: nearly all actives have a fitted effect of over 65% in size; also: potency is read from the fitted curve at half-maximal effect
# Sequence of UniProt P33261 (P33261 whole entry, looked up): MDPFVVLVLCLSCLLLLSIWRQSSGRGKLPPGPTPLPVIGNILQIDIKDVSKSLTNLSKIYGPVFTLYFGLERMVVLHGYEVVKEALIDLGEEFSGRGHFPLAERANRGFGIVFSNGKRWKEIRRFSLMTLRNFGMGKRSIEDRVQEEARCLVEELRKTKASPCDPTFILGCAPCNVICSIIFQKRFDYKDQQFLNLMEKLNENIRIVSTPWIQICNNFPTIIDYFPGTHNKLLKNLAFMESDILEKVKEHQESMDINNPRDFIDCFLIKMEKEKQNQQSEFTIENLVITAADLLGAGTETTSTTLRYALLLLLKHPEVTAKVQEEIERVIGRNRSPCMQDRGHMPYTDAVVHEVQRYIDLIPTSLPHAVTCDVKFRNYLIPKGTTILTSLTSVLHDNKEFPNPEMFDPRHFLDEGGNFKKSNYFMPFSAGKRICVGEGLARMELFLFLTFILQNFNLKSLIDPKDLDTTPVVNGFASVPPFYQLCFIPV
# Summary of the method: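 Compounds were tested on CYP2C19 activity via proluciferin conversion to luciferin. The 37C, 1 h reaction followed NADPH addition; detection reagent stopped it.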
# [5] = molecular target: Cytochrome P450 1A2 (Homo sapiens) (UniProt P05177); test: Cytochrome P450 Family 1 Subfamily A Member 2 (CYP1A2) small molecule antagonists: luciferase reporter qHTS assay (AID 1671199); also: nearly all actives have a fitted effect of over 50% in size; also: potency is read from the fitted curve at half-maximal effect
# Sequence of UniProt P05177 (P05177 whole entry, looked up): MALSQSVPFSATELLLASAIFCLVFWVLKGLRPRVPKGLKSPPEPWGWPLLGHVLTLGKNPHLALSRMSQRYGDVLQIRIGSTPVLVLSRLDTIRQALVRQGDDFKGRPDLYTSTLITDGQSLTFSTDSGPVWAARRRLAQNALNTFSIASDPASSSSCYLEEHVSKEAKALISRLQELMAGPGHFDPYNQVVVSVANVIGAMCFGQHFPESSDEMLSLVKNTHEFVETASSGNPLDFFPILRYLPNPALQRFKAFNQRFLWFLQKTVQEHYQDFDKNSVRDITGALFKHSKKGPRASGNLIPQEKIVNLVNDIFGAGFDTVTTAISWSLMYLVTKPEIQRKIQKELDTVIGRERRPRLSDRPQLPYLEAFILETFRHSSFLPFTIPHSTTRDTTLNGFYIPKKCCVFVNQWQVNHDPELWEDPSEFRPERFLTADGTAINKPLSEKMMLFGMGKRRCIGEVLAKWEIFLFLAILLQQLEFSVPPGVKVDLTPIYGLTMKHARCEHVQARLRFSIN
# Summary of the method: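 Enzymatic CYP1A2 assay, human, luminescent: 10 min compound–enzyme–substrate preincubation, 1 h NADPH-dependent turnover, 20 min detection step, room temperature throughout. Reduced light indicates lower CYP1A2 activity.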
# [6] = molecular target: Cytochrome P450 2D6 (Homo sapiens) (UniProt P10635); test: Cytochrome P450 Family 2 Subfamily D Member 6 (CYP2D6) small molecule antagonists: luciferase reporter qHTS assay (AID 1671196); also: nearly all actives have a fitted effect of over 50% in size; also: potency is read from the fitted curve at half-maximal effect
# Sequence of UniProt P10635 (P10635 whole entry, looked up): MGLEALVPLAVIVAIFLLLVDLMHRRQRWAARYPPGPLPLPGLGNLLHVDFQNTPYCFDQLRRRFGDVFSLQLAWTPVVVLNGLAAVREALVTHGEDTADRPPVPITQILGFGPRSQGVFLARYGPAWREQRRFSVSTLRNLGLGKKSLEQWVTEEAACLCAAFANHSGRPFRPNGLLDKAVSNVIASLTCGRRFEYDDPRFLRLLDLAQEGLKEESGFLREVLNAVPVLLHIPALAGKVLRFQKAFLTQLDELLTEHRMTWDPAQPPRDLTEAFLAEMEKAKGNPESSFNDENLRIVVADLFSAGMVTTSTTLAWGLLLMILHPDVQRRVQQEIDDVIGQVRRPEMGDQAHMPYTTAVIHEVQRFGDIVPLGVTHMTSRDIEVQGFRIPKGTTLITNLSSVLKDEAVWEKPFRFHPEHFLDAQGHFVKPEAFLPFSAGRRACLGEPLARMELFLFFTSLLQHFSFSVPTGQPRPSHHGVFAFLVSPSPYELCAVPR
# Summary of the method: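 Each well received CYP2D6 with its proluciferin substrate and chemical, sat 10 min, then got NADPH regeneration solution for 1 h at room temperature. Luminescence in RLU served as the activity measure.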
# [7] = molecular target: Cytochrome P450 3A4 (Homo sapiens) (UniProt P08684); test: Cytochrome P450 Family 3 Subfamily A Member 4 (CYP3A4) small molecule antagonists: luciferase reporter qHTS assay (AID 1671201); also: potency is read from the fitted curve at half-maximal effect; nearly all actives have a fitted effect of over 50% in size
# Sequence of UniProt P08684 (P08684 whole entry, looked up): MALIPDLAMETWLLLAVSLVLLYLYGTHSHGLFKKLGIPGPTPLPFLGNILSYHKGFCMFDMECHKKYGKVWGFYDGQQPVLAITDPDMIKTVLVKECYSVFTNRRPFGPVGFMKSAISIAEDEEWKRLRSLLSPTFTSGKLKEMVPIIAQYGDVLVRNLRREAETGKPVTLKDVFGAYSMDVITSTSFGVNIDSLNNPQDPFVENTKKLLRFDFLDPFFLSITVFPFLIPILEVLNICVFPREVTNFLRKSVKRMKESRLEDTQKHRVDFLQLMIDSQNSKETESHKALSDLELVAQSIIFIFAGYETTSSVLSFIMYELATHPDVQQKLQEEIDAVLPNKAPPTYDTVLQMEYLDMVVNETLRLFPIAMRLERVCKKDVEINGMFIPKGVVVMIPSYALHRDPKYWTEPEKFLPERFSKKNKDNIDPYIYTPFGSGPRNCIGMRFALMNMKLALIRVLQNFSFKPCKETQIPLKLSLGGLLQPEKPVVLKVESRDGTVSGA
# Summary of the method: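 Proluciferin-to-luciferin conversion by CYP3A4, NADPH-regenerated, 1 h RT; luminescence read as RLU. Ketoconazole as control.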
# [8] = molecular target: Nuclear receptor subfamily 1 group I member 2 (Homo sapiens) (UniProt O75469); test: Human pregnane X receptor (PXR) small molecule agonists, qHTS assay (AID 1346982); also: nearly all actives have a fitted effect of over 35% in size; also: potency is read from the fitted curve at half-maximal effect; as to activation: % is scaled to controls: 0 for no effect and ±100 for the full control effect
# Summary of the method: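 Compound-induced hPXR transactivation of a CYP3A4 luciferase reporter was scored in HepG2 PXR-Luc cells over 24 hr at 37 C, 5% CO2, by luminescence.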
# [9] = Caspase-3/7 induction in HepG2 cells by small molecules, qHTS cell viability counter screen (AID 1346981); also: nearly all actives have a fitted effect of over 30% in size; also: potency is read from the fitted curve at half-maximal effect
# Summary of the method: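 Viability determined by CellTiter-Fluor fluorescence in HepG2 wells also used for the luminescent Caspase-Glo 3/7 read. Compounds were present for 16 hr at 37 C, 5% CO2 before reagent addition.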
# [10] = molecular target: Voltage-gated inwardly rectifying potassium channel KCNH2 (Homo sapiens) (UniProt Q12809); test: Human Ether-a-go-go-Related Gene (hERG) channel small molecule antagonists: fluorescence cell-based qHTS assay (AID 1671200)
# Sequence of UniProt Q12809 (Q12809 whole entry, looked up): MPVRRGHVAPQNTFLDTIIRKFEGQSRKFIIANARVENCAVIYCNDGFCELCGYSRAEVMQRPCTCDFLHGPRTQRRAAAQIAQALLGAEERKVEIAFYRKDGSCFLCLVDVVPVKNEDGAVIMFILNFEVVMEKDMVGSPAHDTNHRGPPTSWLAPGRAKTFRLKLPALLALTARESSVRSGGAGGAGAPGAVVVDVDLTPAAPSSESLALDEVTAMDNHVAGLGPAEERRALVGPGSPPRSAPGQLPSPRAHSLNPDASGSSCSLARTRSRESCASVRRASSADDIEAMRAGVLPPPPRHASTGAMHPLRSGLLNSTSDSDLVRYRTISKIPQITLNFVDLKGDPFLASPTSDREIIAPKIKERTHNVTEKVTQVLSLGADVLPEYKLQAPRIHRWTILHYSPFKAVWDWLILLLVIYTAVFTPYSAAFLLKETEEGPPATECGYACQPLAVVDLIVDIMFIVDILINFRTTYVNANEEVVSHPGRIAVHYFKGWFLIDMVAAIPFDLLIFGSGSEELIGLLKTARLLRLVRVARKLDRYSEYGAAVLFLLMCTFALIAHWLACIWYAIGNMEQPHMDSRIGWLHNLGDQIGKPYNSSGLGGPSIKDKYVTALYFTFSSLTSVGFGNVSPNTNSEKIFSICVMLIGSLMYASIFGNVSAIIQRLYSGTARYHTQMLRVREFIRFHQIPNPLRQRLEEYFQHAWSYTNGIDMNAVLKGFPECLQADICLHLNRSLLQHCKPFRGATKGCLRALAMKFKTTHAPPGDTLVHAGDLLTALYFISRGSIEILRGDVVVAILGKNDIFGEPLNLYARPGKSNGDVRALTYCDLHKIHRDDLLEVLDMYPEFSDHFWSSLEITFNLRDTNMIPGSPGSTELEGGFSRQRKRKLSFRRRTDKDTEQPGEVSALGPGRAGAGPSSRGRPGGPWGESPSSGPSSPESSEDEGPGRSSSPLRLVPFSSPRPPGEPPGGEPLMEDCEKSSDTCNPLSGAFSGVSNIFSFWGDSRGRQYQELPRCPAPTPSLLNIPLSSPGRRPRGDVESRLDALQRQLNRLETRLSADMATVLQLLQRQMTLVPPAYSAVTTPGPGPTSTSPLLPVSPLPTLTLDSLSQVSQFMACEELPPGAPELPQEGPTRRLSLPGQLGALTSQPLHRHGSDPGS
# Summary of the method: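 Kinetic two-minute fluorescence traces, sampled at 1 s, were collected following thallium stimulus of U2OS cells (1000 per well) that had been cultured overnight at 37 C and loaded with FluxOR II.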
# [11] = molecular target: Nuclear receptor subfamily 1 group I member 2 (Homo sapiens) (UniProt O75469); test: Human pregnane X receptor (PXR) activation by small molecules, qHTS assay (AID 1346985); also: potency is read from the fitted curve at half-maximal effect; nearly all actives have a fitted effect of over 40% in size
# Summary of the method: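 DPX-2 cells (HepG2 co-transfected with a PXR response element and a CYP3A4-promoter luciferase construct) were seeded at 2,000 per well, rested 5 hr at 37C, then exposed to DMSO-dissolved compounds for 24 hr. Activation was read as luciferase luminescence.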
# [12] = Human pregnane X receptor (PXR) small molecule agonists, qHTS cell viability counter screen (AID 1346977)
# Summary of the method: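 Tox21 qHTS format; PXR-Luc HepG2, 2,000/well, charcoal-stripped FBS 5%. Cpd exposure 24hr. Read: CellTiter-Fluor fluorescence, multiplexed with luciferase.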
# Tags tell the direction and shape of the fitted curve or compound fluorescence and quenching.
compound,measurement,setting,value
C[C@@H]1C[C@H]2[C@@H]3CCC4=CC(=O)C=C[C@]4(C)[C@@]3(F)[C@@H](O)C[C@]2(C)[C@H]1C(=O)CO,"activity, negative = inhibition",[1],inconclusive: 2.98% [at 35.3 µM]
same,Potency,[2],active: 2.51 µM
same,Potency,[3],active: 15.5 µM
CN(C)CCOCCN(C)C,"activity, negative = inhibition",[1],inconclusive: 4.77%
same,Potency,[4],"inconclusive: 91 µM [inhibitor, single point]"
same,Potency,[3],"inconclusive: 72.3 µM [inhibitor, partial curve]"
same,Potency,[5],"inconclusive: 64.4 µM [inhibitor, partial curve]"
Oc1ccc(O)c2c(O)cccc12,"activity, negative = inhibition",[1],inconclusive: -0.938%
same,Potency,[4],"inconclusive: 7.89 µM [inhibitor, full curve, poor fit]"
same,Potency,[3],inactive
CCCCCCCCCCCC(=O)N(C)CC(=O)O,Potency,[1],"inconclusive: 53.2 µM [rising, partial curve, poor fit]"
same,Potency,[6],"inconclusive: 43.4 µM [inhibitor, partial curve]"
CCc1c(C)cc(N)c(CC)c1N,"activity, negative = inhibition",[1],inconclusive: 31.2%
same,Potency,[6],active: 4.48 µM
same,Potency,[5],active: 20 µM
same,Potency,[7],active: 15.9 µM
CC(O)CN(CCCN(C)C)CCCN(C)C (configuration not stated),"activity, negative = inhibition",[1],inconclusive: -0.0924%
same,Potency,[8],inactive
FC(F)(F)C(Cl)Br (configuration not stated),"activity, negative = inhibition",[1],inconclusive: -0.984% [at 35.3 µM]
same,Potency,[4],"inconclusive: 3.89 µM [inhibitor, single point]"
CC(C)c1nnc2ccc(-c3ocnc3-c3cc(F)ccc3F)cn12,"activity, negative = inhibition",[1],inconclusive: -0.305%
same,Potency,[6],"inconclusive: 39.9 µM [inhibitor, partial curve]"
C[Si]1(C)N[Si](C)(C)N[Si](C)(C)N1,"activity, negative = inhibition",[1],inconclusive: -6.9%
same,Potency,[9],inactive
same,Potency,[8],inactive
same,Potency,[5],"inconclusive: 31.7 µM [inhibitor, partial curve]"
CC(C)c1ccc2oc3nc(N)c(C(=O)O)cc3c(=O)c2c1,Potency,[1],"inconclusive: 16.9 µM [rising, partial curve]"
same,Potency,[2],active: 4.47 µM
same,Potency,[6],active: 15.5 µM
same,Potency,[5],active: 17.4 µM
CC(=O)C(=O)O,"activity, negative = inhibition",[1],inconclusive: 6.86%
same,Potency,[6],"inconclusive: 20.3 µM [inhibitor, full curve]"
same,Potency,[5],"inconclusive: 39.9 µM [inhibitor, partial curve]"
O=C(O)[C@H](O)[C@@H](O)[C@H](O)[C@H](O)CO,"activity, negative = inhibition",[1],inconclusive: 1.73% [at 2.72 µM]
same,Potency,[4],"inconclusive: 4.81 µM [inhibitor, single point]"
same,Potency,[3],"inconclusive: 35.5 µM [inhibitor, partial curve]"
SCCOCCOCCS,"activity, negative = inhibition",[1],inconclusive: 11.3%
same,Potency,[8],active: 4.86 µM
same,Potency,[3],active: 35.6 µM
COc1cc2c(cc1OC)-c1cc(=Nc3c(C)cc(C)cc3C)n(C)c(=O)n1CC2,"activity, negative = inhibition",[1],inconclusive: -17.9% [at 35.3 µM]
same,Potency,[9],"inconclusive: 29.8 µM [cytotoxic, partial curve, poor fit]"
same,Potency,[2],"inconclusive: 2.82 µM [activator, full curve, poor fit]"
same,Potency,[4],active: 17.4 µM
same,Potency,[3],active: 1.1 µM
same,Potency,[10],"inconclusive: 10.7 µM [inhibitor, partial curve]"
COc1cc(NC(=O)CC(C)=O)c(OC)cc1Cl,Potency,[1],"inconclusive: 21.9 µM [fluorescent, partial curve]"
same,Potency,[6],"inconclusive: 71.3 µM [inhibitor, partial curve]"
same,Potency,[4],active: 40.1 µM and active: 39.9 µM
same,Potency,[3],active: 40.1 µM and active: 39.9 µM
same,Potency,[5],active: 3.57 µM and active: 5.64 µM
same,Potency,[10],"inconclusive: 34.7 µM [inhibitor, partial curve]"
CC1(C)O[C@@H]2C[C@H]3[C@@H]4CCC5=CC(=O)C=C[C@]5(C)[C@H]4[C@@H](O)C[C@]3(C)[C@]2(C(=O)CO)O1,"activity, negative = inhibition",[1],inconclusive: 0.726% [at 35.3 µM]
same,Potency,[8],"inconclusive: 8.41 µM [activator, partial curve, poor fit]"
same,Potency,[11],"inconclusive: 3.98 µM [activator, full curve, poor fit]"
same,Potency,[3],"inconclusive: 38.9 µM [inhibitor, partial curve, poor fit]"
same,Potency,[5],inactive
same,Potency,[7],active: 3.47 µM
O=S(=O)(Oc1ccc(Cl)cc1)c1ccccc1,"activity, negative = inhibition",[1],inconclusive: -16.8%
same,Potency,[6],active: 31.7 µM
same,Potency,[3],active: 31.7 µM
same,Potency,[5],active: 5.64 µM
CCN(CCCCOC(=O)c1ccc(OC)c(OC)c1)C(C)Cc1ccc(OC)cc1 (configuration not stated),"activity, negative = inhibition",[1],inconclusive: -6.28% [at 35.3 µM]
same,Potency,[9],inactive
CC1CCc2c(N3CCC(O)CC3)c(F)cc3c(=O)c(C(=O)O)cn1c23 (configuration not stated),"activity, negative = inhibition",[1],inconclusive: 1.89% [at 35.3 µM]
same,Potency,[4],"inconclusive: 43.6 µM [inhibitor, single point]"
same,Potency,[5],inactive
Cc1c(Nc2ncccc2C(=O)O)cccc1C(F)(F)F,"activity, negative = inhibition",[1],inconclusive: 0.348% [at 35.3 µM]
same,Potency,[8],"inconclusive: 21.1 µM [activator, partial curve]"
same,Potency,[5],"inconclusive: 30.9 µM [inhibitor, partial curve]"
CC1=C2[C@H](/C=C(\C)C(=O)O)CC[C@@H](C)[C@H]2CC1,Potency,[1],"inconclusive: 57 µM [rising, single point]"
same,Potency,[8],active: 56.5 µM
same,Potency,[6],inconclusive: 41.4 µM [inhibitor]
NS(=O)(=O)c1ccc(C(=O)O)cc1,"activity, negative = inhibition",[1],inconclusive: -21.5% [at 35.3 µM]
same,Potency,[8],inactive
same,Potency,[5],inactive
COc1cccc2sc(N)nc12,"activity, negative = inhibition",[1],inconclusive: -2.54%
same,Potency,[8],"inconclusive: 48.9 µM [activator, partial curve]"
same,Potency,[3],inactive
COC(=O)/C=C/C(C)=C\C=C\C(C)=C\C=C\C=C(C)\C=C\C=C(C)\C=C\C(=O)O,"activity, negative = inhibition",[1],inconclusive: -11.5%
same,Potency,[6],active: 39.9 µM
same,Potency,[4],"inconclusive: 89.4 µM [inhibitor, single point]"
same,Potency,[3],"inconclusive: 71 µM [inhibitor, partial curve, poor fit]"
same,Potency,[7],"inconclusive: 63.3 µM [inhibitor, partial curve]"
CC1(C)OC(=O)NC1=O,"activity, negative = inhibition",[1],inconclusive: 3.33% [at 35.3 µM]
same,Potency,[6],inactive
C[N+]1(CC2COC(c3ccccc3)(C3CCCCC3)O2)CCCCC1 (configuration not stated),Potency,[1],"inconclusive: 7.56 µM [fluorescent, partial curve, poor fit]"
same,Potency,[9],inactive
same,Potency,[8],inactive
same,Potency,[3],"inconclusive: 43.6 µM [inhibitor, single point]"
same,Potency,[10],active: 15.1 µM
Cc1occc1C(=O)Nc1ccc(C(=O)N2CCC(F)(F)/C(=C\C(=O)N3CCC(N4CCCCC4)CC3)c3ccccc32)cc1,"activity, negative = inhibition",[1],inconclusive: 7.02% [at 35.3 µM]
same,Potency,[9],"inconclusive: 21.4 µM [cytotoxic, partial curve, poor fit]"
same,Potency,[8],active: 19.1 µM
same,Potency,[3],"inconclusive: 17.6 µM [inhibitor, partial curve, poor fit]"
CCC(C)OC(=O)N1CCCCC1CCO (configuration not stated),"activity, negative = inhibition",[1],inconclusive: -1.35%
same,Potency,[6],inactive
same,Potency,[3],active: 79.6 µM
same,Potency,[5],"inconclusive: 71 µM [inhibitor, partial curve, poor fit]"
O=C1NCCN1,"activity, negative = inhibition",[1],inconclusive: 17%
same,Potency,[4],active: 34.1 µM
Nc1ccnc(=O)[nH]1,"activity, negative = inhibition",[1],inconclusive: -3.72%
same,Potency,[4],inactive
same,Potency,[3],inactive
COCC(O)CO (configuration not stated),"activity, negative = inhibition",[1],inconclusive: 7.22%
same,Potency,[6],inactive
O=C(O)c1nc(Cl)c(Cl)c(Cl)c1Cl,Potency,[1],"inconclusive: 21.9 µM [fluorescent, partial curve]"
same,Potency,[4],"inconclusive: 0.0056 µM [inhibitor, full curve, poor fit]"
C=CCOC(=O)CC(C)C,Potency,[12],inactive
CC1=C(C)C(=O)C(CCCCC#CCCCC#CCO)=C(C)C1=O,"activity, negative = inhibition",[1],inconclusive: -16.4% [at 35.3 µM]
same,Potency,[10],"inconclusive: 26.8 µM [inhibitor, single point]"
CCCCC(C=O)CC (configuration not stated),"activity, negative = inhibition",[1],inconclusive: 10.9%
same,Potency,[5],inactive
